# In PubChem BioAssay AID1347073 (National Center for Advancing Translational Sciences (NCATS), 2019):
# Out of some 45,000 compounds screened, about 200 (0.44%) were called active. Roughly 7% stayed inconclusive and do not appear here. Calls follow the shape of the dose curve; as a rule, active = well fitted activation curve with a large enough effect; inconclusive = small, poorly fitted or top-dose-only effect; inactive = no such curve, though single readings can be large or run the other way. The list shows a part of the results. Peptide text beside a SMILES is read from it. * marks the point of attachment. Boc = CC(C)(C)OC(=O)*; Bn = c1ccc(C*)cc1
# Experiment: qHTS of TDP-43 Inhibitors: NCGC Sytravon Library Screen; also: 0% is about no effect; nearly all actives have a fitted effect of over 55% in size
# Details: yeast TDP-43 toxicity rescue, BacTiter-Glo growth, 24 h; series mostly up to 46.1 µM; growth rescue (activation): at the top concentration
# Procedure, shortened: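 TDP-43-expressing yeast, pregrown in raffinose, seeded at OD600 0.02 in galactose medium with compound for 24 hr at 30 deg C. Growth read by BacTiter-Glo luminescence, so rescue of toxicity appears as activation.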
row,SMILES,growth rescue (activation)
1,Brc1ccc(-c2csc(N/N=C/c3ccco3)n2)cc1,inactive: 0.195%
2,COc1ccc(OC)c(NC(=O)CN(C)CC(=O)Nc2ccccc2Cl)c1,inactive: 18.5%
3,CN(C)C(CNC(=O)c1cccc(C(F)(F)F)c1)c1ccco1 (centres undefined),inactive: 4.39%
4,Cc1ncc(S(=O)(=O)c2ccc(Cl)cc2)c(-c2ccccc2)n1,inactive: 3.98%
5,Cc1c(Cl)cccc1NCC(=O)NN=C1CCCC1,inactive: 4.36%
6,Cc1cccn2c(CN3CCCN(C=O)CC3)c(C(=O)N(C)CCc3ccccc3)nc12,inactive: -12.9%
7,COc1ccc(OCCSc2nc(C)c(Cc3ccccc3)c(=O)[nH]2)cc1,inactive: 8.3%
8,CC(=O)NCCNc1nc2cc(-c3cccc(C(F)(F)F)c3)sc2c(=O)n1C,inactive: 14.1%
9,CCCCCCCCCCOC(=O)Cn1c(COc2cccc(C)c2)[n+](C)c2ccccc21,inactive: -50.7%
10,CCN(CC)C(=S)SCc1csc(CC(=O)Nc2ccccc2C)n1,inactive: 26.9%
11,OC(c1ccc(Cl)c(Cl)c1)c1ncc(-c2ccccc2Cl)[nH]1 (centres undefined),inactive: 10.7%
12,O=C(Nc1ccccc1)c1ccc2snnc2c1,inactive: 12.9%
13,CCC(C)C(NC(=O)c1ccccc1NC(=O)c1ccco1)C(=O)NC1CCCCC1 (centres undefined),inactive: 22.3%
14,Cc1ccc(/C(O)=C2\C(=O)C(=O)N(CC(C)O)C2c2ccc(N(C)C)cc2)cc1 (centres undefined),inactive: 19%
15,CC(=O)Nc1cc(-c2ccccc2N(C)C)cn2c(-c3ccc(S(C)(=O)=O)cc3)cnc12,inactive: 6.4%
16,Cc1ccc(OCCSc2nc3ncnc(N)c3[nH]2)cc1,inactive: 2.97%
17,O=C(NC1CC1)c1cccc(-c2cncc3nccn23)c1,inactive: -20.2%
18,Cc1cccc(NC(=S)NCc2ccco2)c1C,inactive: -16.1%
19,COC(=O)c1cc(C)nc2c1C(=O)C(=O)C=C2N1CCOCC1,inactive: -23.7%
20,O=C(NCC(=O)N(c1ccc(F)cc1)C(C(=O)NC1CCCCC1)c1ccncc1)c1ccco1 (centres undefined),inactive: 3.36%
21,Cc1ccc(NC(=O)COC(=O)CNC(=O)c2ccc3ccccc3c2)c([N+](=O)[O-])c1,inactive: -14.5%
22,COc1cccc(N2C(=O)C3CCCN3C2=S)c1 (centres undefined),inactive: -31.3%
23,CC1(C(=O)NS(=O)(=O)c2ccc(F)cc2F)CCN1C(=O)Cc1cccc2ccccc12 (centres undefined),inactive: 3.56%
24,O=C(NCc1ccccc1Cl)c1cc2c(s1)-c1ccccc1SC2,inactive: 4.11%
25,COc1ccc(C(=O)Nc2nnc(-c3ccc(F)cc3)s2)c(OC)c1,inactive: -20.9%
26,S=c1[nH]nc(-c2ccc(Br)cc2)n1Cc1ccccc1,inactive: 19.5%

row,SMILES,growth rescue (activation)
1,CN(C)c1ccc(CNC(=O)C2(C)Cc3c(-c4ccc(N(C)C)cc4)ccnc3O2)cc1 (centres undefined),inactive: 3.91%
2,CC(C)CC(NC(=O)C(NC(=O)C(Cc1ccc(OCc2ccccc2)cc1)NC(=O)OC(C)(C)C)C(C)C)C(N)=O (stereo not drawn) (Boc-Tyr(Bn)-Val-Leu-NH2; configuration not given here),inactive: 6.08%
3,CC(C)(C)c1ccc(C(=O)NCCC(=O)N2CCN(c3ncccn3)CC2)cc1,inactive: 25%
4,COc1ccccc1/C=C/C=N/NC(=O)c1ccc(=O)n(C)c1,inactive: 0.683%
5,Cc1cccc(C(=O)NCCCNC(=O)c2ccccn2)c1,inactive: 10.2%
6,CCN(C(=O)COC(=O)c1ccc(Cl)c(S(=O)(=O)N2CCCCC2)c1)C1CCS(=O)(=O)C1 (centres undefined),inactive: 9.97%
7,O=C(NCc1cccc(Cl)c1)c1ccc2nc[nH]c2c1,inactive: 12.3%
8,COc1cccc(N2CCN(C(=O)C3CCN(S(=O)(=O)c4cccs4)CC3)CC2)c1,inactive: 15%
9,Cc1ccc(O)c(NC(=O)c2noc3c2CCCCC3)c1,inactive: 20.2%
10,COc1ccccc1C(=O)OCCCN=C1NS(=O)(=O)c2ccccc21,inactive: 14.7%
11,CNc1cc(C(=O)Nc2cccc(OCc3ccccc3)c2)ncn1,inactive: 7.96%
12,Cc1c(C(=O)O)cccc1-n1c(C)cc(/C=C(/C#N)C(=O)NCc2ccccc2)c1C,inactive: -12.2%
13,COc1ccc(OC)c(NC(=O)C2(C)CCN2CCOc2ccccc2)c1 (centres undefined),inactive: 8.76%
14,CC(=O)c1sc(N/N=C2\CC3CC2C(C)C3(C)C)nc1C (centres undefined),inactive: 15.6%
15,COc1ccc(C)cc1C(=O)C1CC(C(=O)O)C(C)(C)C1C (centres undefined),inactive: 13.1%
16,COc1ccc(NC(=O)CSc2nc(O)cc(=O)n2-c2ccc(OC)cc2)cc1,inactive: 0.201%
17,COc1cc2c(cc1OC)C(C)N(C(=O)[C@@H](NC(=O)c1ccccc1)C(C)C)CC2 (some centres undefined),inactive: -26.6%
18,COC(=O)c1c(NC(=O)C2CC(=O)NN2Cc2ccccc2)sc(C)c1C (centres undefined),inactive: 9.69%
19,Cc1ccc(C)c(CN2C(=O)c3ccccc3S(=O)(=O)c3ccc(C(=O)N4CCCC4)cc32)c1,inactive: 8.34%
20,COc1ccc(N2CCN(C(=O)C(NC(=O)c3c(F)cccc3F)C(C)C)CC2)cc1 (centres undefined),inactive: 9.39%
21,COc1cc(OC)cc(C(=O)Nc2cc(C)nn2-c2ccccc2)c1,inactive: 7.59%
22,CCC(C(=O)NC1CCCC1)n1c2ccccc2c2nc(=O)cc(C)n21 (centres undefined),inactive: -3.31%
23,Cc1[nH]c2ccccc2c1C(=O)COC(=O)c1ccccc1O,inactive: -0.542%
24,O=C(N/N=C/c1cc(Br)cc(Br)c1O)c1cccc(S(=O)(=O)N2CCOCC2)c1,inactive: 14.1%
25,C/C(=N\NC(=S)Nc1ccc(C)cc1)c1cc2ccccc2o1,inactive: 34%
26,O=C(NCCN1CCCCCC1)C1CCCN1S(=O)(=O)c1cccc2nsnc12 (centres undefined),inactive: 39%

row,SMILES,growth rescue (activation)
1,CC(C(=O)N1CCCCC1)n1ncn2cccc2c1=O (centres undefined),inactive: 16.3%
2,O=C(NCc1ccco1)/C(=C\c1ccccc1)NC(=O)c1ccccc1,inactive: 8.5%
3,O=C(NN1C(=O)c2ccccc2NC1c1ccc([N+](=O)[O-])o1)c1ccc([N+](=O)[O-])cc1 (centres undefined),inactive: 7.65%
4,Cc1ccc(CSCCC(=O)NCCC2=CCCCC2)cc1,inactive: -11.4%
5,O=C(COC(=O)c1ccccc1)NC1CCCC1,inactive: 0.0791%
6,O=C(NCc1cccc(Br)c1)C1CCN(C(=O)c2sccc2-n2cccc2)CC1,inactive: 13.1%
7,COc1ccc(C(=O)Nc2ccc(NC(=O)c3cccc(OC)c3)cn2)cc1,inactive: 12.3%
8,CN1CCN(CC(=O)Nc2cc(N3CCOCC3)ccc2[N+](=O)[O-])CC1,inactive: -2.92%
9,CC(C)S(=O)(=O)NC(=O)C1(C)CCN1C(=O)Cc1ccccc1 (centres undefined),inactive: -0.819%
10,CCOc1ccc(N=C(NN)c2ccc3ccccc3n2)cc1,inactive: -16.2%
11,COc1ccccc1N1CCN(C(=O)Cn2nc(C(F)(F)F)c3c2CCC3)CC1,inactive: 6.05%
12,OCCCc1nc2ccccc2[nH]1,inactive: 5.57%
13,CC(=O)Nc1ccc(-c2ccnc3c2CC(C(=O)Nc2ccc4c(c2)OCO4)O3)cc1 (centres undefined),inactive: 10.9%
14,COc1ccc(NC(=O)C2(C)Cc3c(-c4cccc(NC(C)=O)c4)ccnc3O2)cn1 (centres undefined),inactive: 5.35%
15,CCNC(=O)C/C(C)=N/NC(=O)C1CCCCC1,inactive: 12.1%
16,COc1cccc(CCNC(=O)CC2C(=O)NCCN2CC(C)(C)C)c1 (centres undefined),inactive: 4.93%
17,CCCN1Cc2cccc(C(=O)NC(CC(=O)OCC)c3ccc(OCC)c(OC)c3)c2C1=O (centres undefined),inactive: -3.43%
18,COc1ccc(C(=O)OCC(=O)NC2CCCCCC2)c(OC)c1,inactive: 18.6%
19,CCN(CC)S(=O)(=O)c1cc(NC(=O)COC(=O)CCC(=O)c2cccs2)ccc1C,inactive: 7.88%
20,Nc1c(Cl)ncnc1N/N=C/c1ccncc1,inactive: -4.83%
21,Cc1ccccc1-n1c(-c2ccncc2)n[nH]c1=S,inactive: 5.66%
22,CCCN(C(=O)C(NC(=O)c1ccccc1)C(C)C)c1c(N)n(Cc2ccccc2)c(=O)[nH]c1=O (centres undefined),inactive: 33%
23,COc1cc(/C=N/Nc2ccccc2[N+](=O)[O-])ccc1OC(=O)c1ccccc1F,inactive: -0.65%
24,O=C(NC(c1ccc(Cl)cc1)c1cnccn1)C1CCN(CCOc2ccc(F)cc2)CC1 (centres undefined),inactive: 4.61%
25,COC(=O)C(NS(=O)(=O)c1ccc(F)cc1)c1ccccc1 (centres undefined),inactive: -12.9%
26,CC(C)NS(=O)(=O)c1ccc(CCC(=O)N2CCc3ccccc3C2)cc1,inactive: 5.83%

row,SMILES,growth rescue (activation)
1,Cc1ccc(C2=CSC3=NNC4(CCCCC4)NN23)cc1,inactive: 20.3%
2,N#Cc1ccsc1NC(=O)COC(=O)c1ccc2ccccc2c1,inactive: -1.15%
3,Cn1c(=O)[nH]c(=O)c2c1nc(N/N=C/C(Br)=C/c1ccccc1)n2CCO,inactive: 10.7%
4,CCn1c(SCC(=O)N/N=C(\C)c2ccncc2)nnc1-c1ccc(C)cc1,inactive: 8.63%
5,COC(=O)c1ccc(NC(=O)N2CCc3c([nH]c4ccccc34)C2c2ccc(C)cc2)cc1 (centres undefined),inactive: 11.1%
6,Cc1cccc(S(=O)(=O)NC(=O)C2(C)CCN2C(=O)c2c(C)noc2C)c1 (centres undefined),inactive: 11.4%
7,COc1ccc(/C=C2\SC(=S)N(CCC(=O)Nc3cccc(O)c3)C2=O)cc1OC,inactive: 12.7%
8,O=C(CSc1ccc2nnc(-c3ccccc3)n2n1)N1CCCCC1,inactive: -2.88%
9,O=C(CN1CCCCCCC1)Nc1cc(Cl)cc(Cl)c1,inactive: 12.6%
10,COc1cc(N)c(Cl)cc1C(=O)OCC(=O)NCC1CCCCC1,inactive: 23.4%
11,O=S(=O)(NCCCN1CCOCC1)c1ccc2ccccc2c1,inactive: -5.75%
12,COc1ccc(CNC(=O)COC(=O)/C=C/c2ccc(S(=O)(=O)N3CCOCC3)cc2)cc1,inactive: 0.168%
13,COc1ccc(/C=C/C(=O)Nc2cc(F)ccc2C)cc1S(=O)(=O)N1CCOCC1,inactive: 3.34%
14,COC(=O)c1ccccc1NC(=S)N(Cc1ccc2c(c1)OCO2)Cc1cc2ccc(OC)cc2[nH]c1=O,inactive: 15.8%
15,COc1ccc(S(=O)(=O)N2CCC(CN3C(=O)c4cccc5cccc(c45)C3=O)CC2)cc1,inactive: 22.6%
16,CCn1cc(CNC(=O)c2cc(-c3cc(OC)ccc3OC)nc3ccccc23)c(C)n1,inactive: 7.85%
17,CCC(Oc1ccccc1)C(=O)NC1C(=O)N2C1SC(C)(C)C2C(=O)O (centres undefined),inactive: 5.92%
18,O=C(/C=C/c1ccccc1Cl)Nc1ccncc1,inactive: 14.2%
19,Cc1cccc(N(C(=O)c2csnn2)C(C(=O)NC2CCCCC2)c2ccncc2)c1 (centres undefined),inactive: -12.5%
20,COc1ccc(/C=N/n2cnn(Cc3ccccc3Cl)c2=S)cc1,inactive: 9.74%
21,CN(C)C(=O)c1cn(-c2ccccc2)nc1-c1cc2ccccc2oc1=O,inactive: 4.28%
22,O=C(c1ccccc1)c1ccc(NCCCn2ccnc2)c([N+](=O)[O-])c1,inactive: -6.5%
23,CC1CCCCN1CC(=O)Nc1ccccc1Sc1ccccc1 (centres undefined),inactive: 15.5%
24,O=c1c2ccccc2[nH]c(=S)n1CCCN1CCN(c2ccccc2)CC1,inactive: -16.3%
25,COc1cccc(CNc2nc3ccccc3n2C)c1O,inactive: -3.77%
26,Nc1cc(Cl)ccc1C(=O)OCC(=O)NC(=O)NCc1ccccc1,inactive: 25%
